Reference: PubChem BioAssay AID2112 (National Center for Advancing Translational Sciences (NCATS), 2009)
“And” between values parts separate entries of the source, which are not always exact repeats. Identical values can stand only once. Screen size: about 240,000 compounds; about 15 (0.006%) were called active. This list was built around the results that the source calls inconclusive (neither active nor inactive); the mix of calls is not that of the screen. Calls follow the shape of the dose curve; as a rule, active = well fitted inhibition curve with a large enough effect; inconclusive = small, poorly fitted or top-dose-only effect, or effect the other way, or another doubt; inactive = no such curve, though single readings can be large or run the other way. No potency is given beside an inconclusive call; the fits are too rough.
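For activity change, negative = inhibition in this document: 0% = enzyme with vehicle and -100% = no enzyme basal signal.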
Potency is read from the fitted curve at half-maximal effect; tags tell the direction and shape of the fitted curve.

Each molecule was assayed against Lysosomal alpha-glucosidase (Homo sapiens) (UniProt P10253) (assay: qHTS Assay for Inhibitors and Activators of Human alpha-Glucosidase From Spleen Homogenate). Details: 4-MU-alpha-glucoside fluorescence; series mostly up to 79.9 µM.
Outline: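 AC50 values come from Hill-equation fits of concentration-response data, normalized to no-enzyme and full-activity controls. Enzyme source: 1 ug human spleen homogenate; 1 mM fluorogenic 4-MU glucoside, pH 5.0 citrate buffer, 37 C, 40 min.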
For `Oc1ccccc1/C=N/NP(=S)(c1ccccc1)c1ccccc1`, the Potency was “inactive”.
For `Cc1cc(C)c2c(n1)nn1c(NCCCN(C)C)cc(C)nc21`, the Potency was inconclusive [activator, single point].
In the case of `O=C(CSc1ccc2c(c1)OCCO2)Nc1ccc(Br)cc1`, the Potency is reported as inconclusive [inhibitor, single point].
`CC(C)NC(=O)c1onc(CSc2ccc(Cl)cc2)c1C(=O)NC(C)C` was tested, and the Potency was inconclusive [inhibitor, partial curve].
In the case of `CC1CCCC(C)N1C(=O)c1ccccc1Nc1ccc(SC(F)F)cc1` (stereo not given), the Potency is reported as inconclusive [inhibitor, full curve, poor fit].
In the case of `O=C1C=C(O)CC(c2cccs2)C1` (stereo not given), the Potency is reported as inconclusive [inhibitor, full curve, poor fit].
With `CC1(C)CC1C(=O)Nc1ccc([N+](=O)[O-])cc1Br` (stereo not given) the Potency was inconclusive [inhibitor, full curve, poor fit].
`Cc1nn(-c2ccccc2)c(N)c1N=Nc1cccc(S(=O)(=O)N2CCOCC2)c1` was tested, and the Potency was inconclusive [inhibitor, partial curve].
For `Cc1nnc(N/N=C/c2cc([N+](=O)[O-])c(N3CCC(C)CC3)cc2N2CCC(C)CC2)n1N`, the Potency was “inactive”.
With `CN(C)c1oc(-c2cccs2)nc1C#N` the Potency was inconclusive [activator, partial curve].
For `Cc1ccc(S(=O)(=O)Oc2cccc(/C=N/Nc3ccc(C(=O)O)cc3)c2)cc1`, the Potency was “inactive”.
With `C/C=C\C1=CCCC1Nc1ncnc2ccc(-c3c(C)noc3C)cc12` (stereo not given) the Potency was “inactive”.
For `COc1ccc2[nH]c(C)c(CCN(Cc3cccs3)C(=S)Nc3ccc(F)cc3)c2c1`, the Potency was inconclusive [inhibitor, single point].
In the case of `CC1(C)CC(=O)c2cc(OCC(=O)N3CCCCCC3)ccc2O1`, the Potency is reported as inconclusive [activator, single point].
With `CCCOC(=O)C1=C(C)NC2=C(C(=O)C(C(=O)OC)C(C)C2)C1c1ccc(N(CC)CC)cc1` (stereo not given) the Potency was inconclusive [inhibitor, full curve, poor fit].
For `CCc1cc(=O)oc2c(C)c(O)c(CN3CCCCC3)cc12`, the Potency was inconclusive [activator, partial curve].
`C[C@@H](c1ccccc1)N1C(=O)[C@H]2[C@@H]3[C@H](O)C=CC(=O)[C@H]3CC[C@H]2C1=O` was tested, and the activity change, negative = inhibition was inactive: 0.604% [at 17.4 µM].
For `CC(C)S`, the Potency was “inactive”.
In the case of `C/C(N)=C(/C#N)C(=O)CSc1ccc2c(c1)OCCO2`, the Potency is reported as “inactive”.
With `CCS(=O)(=O)Nc1ccc(C2=NN(C(C)=O)C(c3cccs3)C2)cc1` (stereo not given) the Potency was inconclusive [activator, partial curve].
For `CCN1C(=O)[C@H]2[C@H]3[C@H](O)[C@H](O)C/C(=N/O[C@@H](C)c4cn([C@H](CO)Cc5ccccc5)nn4)[C@@H]3CC[C@@H]2C1=O`, the activity change, negative = inhibition was inactive: -5.08% [at 17.4 µM] and inactive: -4.75% [at 17.4 µM].
`Cc1nnc(SCC(=O)NCc2ccc(Cl)cc2)[nH]c1=O` was tested, and the Potency was inconclusive [inhibitor, partial curve].
With `CS(=O)(=O)N(CC(=O)Nc1cccc([N+](=O)[O-])c1)c1ccccc1F` the Potency was inconclusive [inhibitor, partial curve].
`COc1ccc(CCNC(=O)C(=O)c2c[nH]c3ccccc23)cc1` was tested, and the Potency was “inactive”.
For `Cc1ccc(C)c(-c2nc3cc(N)ccc3o2)c1`, the Potency was inconclusive [inhibitor, full curve, poor fit].
For `CCOC(=O)CCc1cccc2c1CCC2=O`, the Potency was inconclusive [inhibitor, partial curve].
For `Cc1nccc(-c2sc(-c3cccs3)nc2C)n1`, the Potency was inconclusive [activator, partial curve].
In the case of `COc1ccc2c(c1)O[C@@H](c1ccc3c(c1)OCO3)[C@H](OC(=O)NCCOc1ccccc1)C2=O`, the Potency is reported as “inactive”.
With `O=c1c(O[C@@H]2O[C@H](CO)[C@@H](O)[C@H](O)[C@H]2O)c(-c2ccc(O)c(O)c2)oc2cc(O)cc(O)c12` the Potency was “inactive”.
In the case of `CC(=O)Nc1sc2c(c1C(c1ccccn1)N1CCN(C)CC1)CCCC2` (stereo not given), the Potency is reported as “inactive”.
With `COc1cc([C@@H]2c3cc4c(cc3[C@@H](NC3CCN(Cc5ccccc5)CC3)[C@H]3COC(=O)[C@H]23)OCO4)cc(OC)c1O` the Potency was inconclusive [activator, partial curve].
`Fc1ccc(N2N=C(c3cccs3)CC2c2ccccc2)cc1` (stereo not given) was tested, and the Potency was inconclusive [activator, partial curve].
For `C=CC[n+]1c(-c2ccc(OC)cc2)csc1NNC(=O)Nc1ccccc1`, the Potency was “inactive”.
`CN1CCC(n2nccc2N)CC1` was tested, and the Potency was inconclusive [inhibitor, single point].
For `Nc1nc(N2CCCCC2)nc2ccccc12`, the Potency was inconclusive [activator, single point].
With `CCN(CC)c1cccc(OC2=NS(=O)(=O)c3ccccc32)c1` the Potency was “inactive”.
`N[C@@H](Cc1cc(I)c(Oc2ccc(O)cc2)c(I)c1)C(=O)O` was tested, and the Potency was “inactive”.
For `CCOc1cccc(N2C(=O)CC(N3CCN(c4nc5ccccc5s4)CC3)C2=O)c1` (stereo not given), the Potency was inconclusive [inhibitor, single point].
For `Nc1c(S(=O)(=O)c2ccccc2)c2nc3ccccc3nc2n1Cc1ccco1`, the Potency was inconclusive [activator, single point].
For `CC1CN(C(=O)c2ccc(COc3ccccc3Br)o2)CC(C)O1` (stereo not given), the Potency was inconclusive [inhibitor, full curve, poor fit].
With `Cc1cc(N(C)C)nc(Cl)n1` the Potency was “inactive”.
With `O=C(/C=C/c1ccc2c(c1)OCO2)c1cccs1` the Potency was inconclusive [activator, partial curve, poor fit].
With `c1ccc(C[n+]2cccc3c4ccccc4ccc32)cc1` the Potency was inconclusive [activator, single point].
With `Cc1coc2c1C(=O)C(=O)c1c-2ccc2c1CCCC2(C)C` the Potency was “inactive”.
`Cc1cccc(CNc2ncncc2-c2cccc(NS(C)(=O)=O)c2)c1` was tested, and the Potency was “inactive”.
